This note sets out measurements from publication PMC2993745 (Molecular Biology of the Cell, 2010).

This experiment addresses recombinant PLEKHM1 (FL) (human, UniProt Q9Y4G2). The experiment is described as follows: pull-down.

B1: GST-Rab7 (natural protein)
chain: not shown
B1: the binding result was “binds”.
